Measurements taken from the supplement of paper PMC11417369.
This is one part of the list.

Tested on: PF3D7_0420300 AP2 domain 1 (GST-tagged)
Test: gcPBM binding intensity (ln(normalized median fluorescence intensity)); higher = stronger DNA binding
Outline: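 Probes on an Agilent 4 × 180k array were primer-extended, double-stranded and 36 bp long, taken from intergenic genomic regions, with negative controls added. GST-tagged P. falciparum DNA-binding domains from E. coli, about 25 μg on average, were applied to the array for 1 h in 1× PBS containing 1% milk, 0.2 mg/ml BSA, 0.5% salmon testes DNA and 0.03% Triton X-100. Binding intensity, obtained after Alexa488 anti-GST antibody detection and a 488 nm scan, is the highest Masliner-normalised natural-log median intensity across replicate spots of either probe orientation.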

| Sequence | gcPBM binding intensity (ln) |
| --- | --- |
| TAATAATATTATTAATGTACAAATATATATACATAT [XGTACX_site7348] | 9.15 |
| TATATATATATATATTGTACCCTTTTCAAACTTCTC [XGTACX_site2812] | 9.02 |
| AATATCATCCTTTTTTTTTATAAAATTTAAAATATA [CACACA_negctrl_site844] | 9.06 |
| ACCTCACAAATGAATACACACAAACATATATATTTA [CACACA_site4976] | 9.62 |
| TATTTTATTATACCAAGTACAAAATTTAAATATGAA [XGTACX_site5478] | 8.99 |
| TATAAGAGAATATATACACACAAAAATAAATACAGT [CACACA_site5000] | 10.3 |
| ATTTTATGTTGAAAGTGTACGTATTAATATGTAGAA [XGTACX_site245] | 9.12 |
| ATATATATATAATTTTGTACATAATAGCAATTCTAA [XGTACX_site653] | 9.07 |
| GTTTTAAACAAAAATTGTACAATATAATCTTCCTAT [XGTACX_site2851] | 9.08 |
| GGATGGAGTAGTTAAGCATAATAAATAAAATTATGT [CACACA_negctrl_site578] | 9.24 |
| CAAAACCTTTTATGTACACACATATACATCCCACTT [CACACA_site5716] | 9.6 |
| AACAACTATTAATTTACACACATGTATATATTTTAC [CACACA_site3116] | 9.64 |
| AATAGCTAGCTGTGCACACAAACATATTTTCCAAAT [CACACA_site880] | 9.63 |
| AGGTGTGAGACCACGTTCACAAAATAAAATACATAA [CACACA_negctrl_site326] | 9.14 |
| AACACAAGAACAGAACGTACACACACATATATATAT [XGTACX_site7347] | 10 |
| TTTTTTTTTTTTTTTTGTACTCATACATACTATCAT [XGTACX_site3650] | 8.96 |
| ACATCAAGCAGACACACACACACACCCACCCACCCA [CACACA_site8012] | 10.4 |
| CAGGCACTAATAAACACACACATATAAATATAAATA [CACACA_site6320] | 9.72 |
| AATTTCTACTATTGTATGCACTTTCATACATACATA [GTGCAC_site9924] | 9.31 |
| TTTATTTTCATATGAACACACATATTTATATTATAA [CACACA_site7165] | 9.45 |
| ATACATACATATATATGTACTTATATTTTACACATT [XGTACX_site1688] | 9.54 |
| TAATAAAAGAAAAAAAGTACAGACATATTGAATTTT [XGTACX_site5044] | 9.4 |
| TACAATCTAAGGAGCACACAAAAATGGATAAATATA [CACACA_site933] | 9.48 |

| Sequence | gcPBM binding intensity (ln) |
| --- | --- |
| GCTTGAATAATCAATAGTACACACATATAAATATAT [XGTACX_site5964] | 9.37 |
| CAAACAATTAAACAAACACACATATACAAGTATTTA [CACACA_site5177] | 9.67 |
| TTTAAGTTTTTACTTTGTACGTATTATAATAAAATC [XGTACX_site5683] | 9 |
| TGTTCTTTTTATACTACACACTGATAAAAAAACAAA [CACACA_site3001] | 9.23 |
| TATATTTACTTATGAAGTACATATATATATATATAT [XGTACX_site5069] | 9.01 |
| ATAATAAAAAATACAAGTACACATATTATATATATA [XGTACX_site5355] | 9.47 |
| AATGCTATCATTAATGCACACATTTAAAATTAATAT [CACACA_site3548] | 9.22 |
| TTTAAAACCTTACATACACACAAATATATATATATA [CACACA_site677] | 9.48 |
| ATTTTTTTTTTTAATACACACAATTTTGATGAAGCA [CACACA_site3157] | 9.27 |
| TTTCATAAGAGAAAGACACACAAATATATATTTATT [CACACA_site827] | 9.3 |
| ACATTACCATATAAAACACACAAACATACATACATA [CACACA_site7709] | 9.85 |
| TATAATATTTGGTGCACACAAATTAACAACTGTTTA [CACACA_site3742] | 9.38 |
| TATCCATGCATTTACACACACACAAAAAAAAATTCT [CACACA_site4100] | 10 |
| TTCATACATAGAAAATGTACATATATATATATATAT [XGTACX_site1895] | 9.16 |
| ATATATATGCATAATACACACATCATATAATTAACC [CACACA_site1643] | 9.78 |
| TACAAAATATTTTACACACACATATAAATACAGATA [CACACA_site5447] | 10 |
| AAAAAAAAAAACAATACATGCATAATATTAATAAAA [TGCATGCA_site913] | 9.46 |
| AAGATATGTACTAATACACACACATATATATATATA [CACACA_site8249] | 9.66 |
| AAAGAAAAAAAATAATGTACTTATGTATTTCAGAAA [XGTACX_site3570] | 9.08 |
| ACCTTATTTATTATTGCATGTGACCATCAGATGGTA [TGCATGCA_site288] | 9.39 |
| TTTATTTTTTACCAAGTGCAATATATTATAATAATA | 8.94 |
| TAATATTTATAATAGTGTACACAATTATAAACTGAA [XGTACX_site8426] | 9.27 |
| TATTTATAAGTTTACGCATGCATATAATTATTAATA [TGCATGCA_site311] | 8.98 |

| Sequence | gcPBM binding intensity (ln) |
| --- | --- |
| TTTTTTTTTTTTTTTGTGCACAATTATTTCAATTTT [GTGCAC_site9884] | 9.05 |
| TTTTAAATAATTCGTAATTATAATTATGGAAAAAAG [CACACA_negctrl_site152] | 8.96 |
| AAATAAATTAAAATAAATTAAATTAAATTAGCATTA [GTGCAC_negctrl_site531] | 8.87 |
| TGTATGTTATGTATATGTACATATCTTTGTATTTAT [XGTACX_site6920] | 9.45 |
| TTTATATATATAATATGTACACATAATAATAATACA [XGTACX_site4862] | 9.02 |
| AAATGACATTTCAAAAGTACATATTTAATTAATTAA [XGTACX_site2919] | 9.11 |
| TTTATTTAAAAAGTTTGTACATATATATTATTTTGA [XGTACX_site6040] | 8.97 |
| AATTTATTATTTTATTGTACGTATTTTTTTTTTTAT [XGTACX_site2298] | 9.58 |
| AAAAAATATTAGACTTATAAAGCATAAAGGATATTA [GTGCAC_negctrl_site588] | 9.2 |
| ATATTATAGTTATGAACATGCAAACATTACGAAATA [TGCATGCA_site54] | 9.34 |
| CATATATAAATATATACACACATACATACATACATA [CACACA_site5988] | 9.67 |
| ATATTTGCATGTGGTAGTACATAACATTCTTTTACA [XGTACX_site8194] | 9.34 |
| ATATCTTATAATACGGTGCACTTGACATGAACAACT [GTGCAC_site9987] | 9.35 |
| ACATATTATATATGTGTGCACATATATATATATTTA [GTGCAC_site9591] | 9.6 |
| CTTCAATTAAAATTCACACATATAAATTAAAATATT [CACACA_site6129] | 9.06 |
| ATATATAATTAATTTTGTACACATAAAAAAAAAAAT [XGTACX_site6647] | 9.37 |
| AGAGAGAAAGCTATAACATGCAACAATTTTTTGAAA [TGCATGCA_site514] | 9.25 |
| CACCCCCACAGACACACACACACACCCATATATATA [CACACA_site364] | 10.3 |
| AAGATTCATTGGTTCTGTACAAAATAAACACTATAA [XGTACX_site834] | 9.21 |
| AATATATATATTTAAGTGCATAATATTGTAATATTA | 9.19 |
| TTACCAAAAAAATGTAGTACAATATAATATTATTTA [XGTACX_site5750] | 9.18 |
| ATATATTATGAAGACTGTACATTTACATGAAAAAAA [XGTACX_site7203] | 9.31 |
| ATAAAAATAAAAAGTGTGCACACAAAAATATATATA [GTGCAC_site9931] | 9.9 |

| Sequence | gcPBM binding intensity (ln) |
| --- | --- |
| TTAATTGACATAAAAAGTACTCATATAGATATGCAC [XGTACX_site6391] | 9.15 |
| AAAAAGAACAGAAACACACAAATAAAATAAAATTGT [CACACA_site6921] | 9.78 |
| AAATGTTAATAAAGGTGTACACAAAATAAAAAAAAT [XGTACX_site463] | 9.71 |
| TAATTTTATTTTATATGTACGCAATACAAATATATA [XGTACX_site8461] | 8.95 |
| AAAGAAAGAAGAAATTGTACATAATAAATAAGTAAA [XGTACX_site3311] | 9.28 |
| ATATAAACAATATTTTGTACATAATTTTATGAGCAT [XGTACX_site6933] | 9.25 |
| GCATATGTTTATTGCACACACCAAAAAGAAAACATA [CACACA_site4384] | 9.59 |
| ATTATTTGTTTAATGAGTACGAAGACAAATTTTACC [XGTACX_site5223] | 9.18 |
| AAAGGAAAAAAAAGCACACACAATATTACTTGAAAT [CACACA_site2588] | 9.89 |
| GTACTATACAAAGATGATAATCAATATATATATATA [XGTACX_negctrl_site264] | 9.22 |
| TATATACACAGACACACACACACATACACGCACATA [CACACA_site6909] | 10.3 |
| TTCACCAGTTGGTAAACATGCAATTTTCCATACAAG [TGCATGCA_site267] | 9.02 |
| AAAAAAAACGGACACACACACATACCCATACATACA [CACACA_site5574] | 10.1 |
| ATATAAATACATAAATGTACTTACCATTTAAATATG [XGTACX_site5254] | 9.14 |
| ATTCTTTTAAAATAGGTGCTAAAAATAATATGTTAC | 9.08 |
| CTTTTGTCATTCTTTTGTACACAGTTTGAAATATGT [XGTACX_site1457] | 9.39 |
| AAATAGAGAAATACAAGTACATATCAAACCAATATA [XGTACX_site1192] | 9.62 |
| ATAATAAATAAATAATGTACATATGAAAGAATAAAT [XGTACX_site8355] | 9.63 |
| ATAAAAAAGAAACAAACACACATACATACAAACAAA [CACACA_site4256] | 10.1 |
| TACATTTATATATATACACACACACTAATAAAAAAA [CACACA_site8845] | 10 |
